# Measurements taken from PubChem BioAssay AID1347428 (National Center for Advancing Translational Sciences (NCATS), 2020).
# Among all 91,000 compounds or so, about 290 (0.32%) were called active. Inconclusive results, whose numbers are uncertain, are shown with a selection of clear calls. Calls follow the shape of the dose curve; as a rule, active = well fitted inhibition curve with a large enough effect; inconclusive = small, poorly fitted or top-dose-only effect; inactive = no such curve, though single readings can be large or run the other way. Potencies beside an inconclusive call are fits to weak or partial responses and may not hold up.
# Target: Single-stranded DNA cytosine deaminase (Homo sapiens) (UniProt Q9GZX7)
# Experiment: Primary qHTS assay for inhibitors of Activation Induced Cytidine Deaminase (AID): AID signal; also: nearly all actives have a fitted effect of over 25% in size
# Conditions: AID deamination FRET fluorescence, UDG-coupled, 4 h; series mostly up to 115 µM
# Potency is read from the fitted curve at half-maximal effect; tags tell the direction and shape of the fitted curve.
# UniProt Q9GZX7, sequence (Q9GZX7 whole entry, looked up): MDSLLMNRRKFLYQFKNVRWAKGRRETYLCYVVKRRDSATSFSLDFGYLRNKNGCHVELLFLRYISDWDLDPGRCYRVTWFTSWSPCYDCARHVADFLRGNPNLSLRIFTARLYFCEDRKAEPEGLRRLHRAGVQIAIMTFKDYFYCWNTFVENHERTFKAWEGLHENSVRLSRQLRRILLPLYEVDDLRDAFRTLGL
row,Structure (SMILES),Potency
1,O=S(=O)(c1cccc(F)c1)N1CCC(Oc2ccc(-n3cnnn3)cc2)CC1,"inconclusive: 44.7 µM [inhibitor, partial curve, poor fit]"
2,CCc1ccc(CNC(=O)c2c(C)oc3ncn(CC(C)C)c(=O)c23)cc1,"inconclusive: 56.2 µM [inhibitor, partial curve, poor fit]"
3,N#Cc1ccc(-c2csc(-c3ccncc3)n2)cc1,inactive
4,O=C(NCc1cccs1)c1ccc(Cn2c(SCc3ccc(F)cc3)nc3cccnc32)cc1,"inconclusive: 50.1 µM [inhibitor, partial curve, poor fit]"
5,COc1ccc(/C=C(\C#N)c2nc3ccccc3n2C)c(OC)c1,"inconclusive: 28.2 µM [inhibitor, single point]"
6,CCCCN(C)CCCNC(=O)Cn1ncc2c3ccccc3n(Cc3cc(C)ccc3C)c2c1=O,"inconclusive: 28.2 µM [inhibitor, partial curve, poor fit]"
7,CCN(CC)CCCNC(=O)c1nn(-c2ccc(C)cc2)c(=O)c2c1c1ccccc1n2C,"inconclusive: 89.1 µM [inhibitor, single point]"
8,CCN(Cc1ccccc1)C(=O)c1sc2nc3n(c(=O)c2c1C)CCCC3,"inconclusive: 79.4 µM [inhibitor, partial curve, poor fit]"
9,O=C(/C=C\c1ccccc1)NC1CC(=O)N(c2ccccc2)C1 (stereo not drawn),"inconclusive: 31.6 µM [inhibitor, partial curve, poor fit]"
10,CCN(CC)S(=O)(=O)c1ccc2oc(C(=O)NCc3ccccc3OC)c(C)c2c1,"inconclusive: 22.4 µM [inhibitor, partial curve, poor fit]"
11,COCCCNC(=O)c1ccc(Cn2c(SCc3cccc(C)c3)nc3cccnc32)cc1,"inconclusive: 89.1 µM [inhibitor, single point]"
12,Cc1ccc(C)c(N2CCN(C(=O)c3cc(S(=O)(=O)N4CCCCCC4)cn3C)CC2)c1,"inconclusive: 8.91 µM [inhibitor, full curve, poor fit]"
13,Cc1ccc(NC(=O)Cn2c(=O)c3c(ncn3CC(C)C)n(CC(C)C)c2=O)cc1F,inactive
14,CCc1nnc2sc(-c3ccc(NC(=O)C(c4ccccc4)c4ccccc4)cc3)nn12,"inconclusive: 31.6 µM [inhibitor, partial curve, poor fit]"
15,CCCn1c(=O)c2sccc2n2c(CCCC(=O)Nc3cccc(CC)c3)nnc12,"inconclusive: 79.4 µM [inhibitor, partial curve, poor fit]"
16,COc1cccc(C(=O)C(Cl)C(=O)c2cccc(OC)c2)c1,inactive
17,CCCCCC(O)c1cccc(OCc2ccc3ccccc3n2)c1 (stereo not drawn),"inconclusive: 56.2 µM [inhibitor, partial curve, poor fit]"
18,Cc1cccc(NC(=O)CCn2nc(-c3ccccc3)c3ccccc3c2=O)c1,"inconclusive: 22.4 µM [inhibitor, full curve, poor fit]"
19,CCOC(=O)c1cc(-c2ccc(C)cc2)n(CCC(=O)Nc2ccc(OC)c(OC)c2)c1C,"inconclusive: 79.4 µM [inhibitor, partial curve]"

row,Structure (SMILES),Potency
1,CCN1CCN(C(=O)c2ccc3c(c2)N(Cc2cccc(F)c2)C(=O)c2ccccc2S3)CC1,"inconclusive: 35.5 µM [inhibitor, full curve]"
2,CCOC(=O)c1ccc2ncc(C(=O)OCC)c(Nc3ccccc3CC)c2c1,"inconclusive: 50.1 µM [inhibitor, partial curve]"
3,O=C(CCn1c(=O)c2cccn2c2cccnc21)N1CCN(c2cccc(Cl)c2)CC1,"inconclusive: 56.2 µM [inhibitor, partial curve, poor fit]"
4,Cc1ccc(Cl)cc1N1CCN(C(=O)C2CCN(Cc3nc(-c4ccc(Cl)cc4)oc3C)CC2)CC1,"inconclusive: 50.1 µM [inhibitor, partial curve, poor fit]"
5,CC1=C(C(=O)OC2CCCC2)C(c2ccccc2Cl)CC(=O)N1 (stereo not drawn),inactive
6,Cc1ccc(C(c2sc3nc(-c4ccco4)nn3c2O)N2CCN(Cc3ccccc3)CC2)cc1 (stereo not drawn),"inconclusive: 89.1 µM [inhibitor, partial curve, poor fit]"
7,COc1ccccc1CNC(=O)c1cnn2c(C)c(Cc3ccc(F)cc3)c(C)nc12,"inconclusive: 44.7 µM [inhibitor, partial curve]"
8,Cc1ccc(C)c(Nc2nc(N3CCN(c4ccc(F)cc4)CC3)nc3nccnc23)c1,"inconclusive: 79.4 µM [inhibitor, partial curve, poor fit]"
9,CCc1nn2c(=O)cc(COC(=O)C(c3ccccc3)c3ccccc3)nc2s1,"inconclusive: 56.2 µM [inhibitor, partial curve, poor fit]"
10,Cc1ccc(Cl)cc1N1CCN(C(=O)C2CCN(Cc3nc(-c4cccc(Cl)c4)oc3C)CC2)CC1,"inconclusive: 44.7 µM [inhibitor, partial curve, poor fit]"
11,COC(=O)CC1Oc2ccccc2-n2cc(-c3ccc(Cl)cc3)nc21 (stereo not drawn),"inconclusive: 89.1 µM [inhibitor, partial curve, poor fit]"
12,Fc1ccc(CNc2nc(-c3ccccc3)cc(C(F)(F)F)n2)cc1,active: 44.7 µM
13,COc1cccc(OCc2nc3ccccc3n2CCOc2cccc(C)c2)c1,"inconclusive: 3.16 µM [inhibitor, full curve, poor fit]"
14,CC(=O)NCCc1ccc(C(=O)COC(=O)c2ccc(C)cc2O)s1,inactive
15,Cc1ccc(NC(=O)C2CCCN2S(=O)(=O)c2cccc3cccnc23)cc1C (stereo not drawn),"inconclusive: 10 µM [inhibitor, full curve, poor fit]"
16,COCCNc1ncnc2c1c(-c1ccccc1)cn2-c1cccc(Cl)c1,"inconclusive: 89.1 µM [inhibitor, single point]"
17,CC(C)C(=O)OCc1cc(=O)n2nc(C3CCCCC3)sc2n1,inactive
18,CC(C)Cn1c(/C=C/c2ccc(F)cc2)nc2ccccc21,inactive
19,CCCCOCc1cc(CN2CCN(c3cccc(Cl)c3)CC2)c(O)c2ncccc12,"inconclusive: 14.1 µM [inhibitor, full curve, poor fit]"
